The inconclusive results got no clear call from the source; some entries with a clear call stand among them for comparison. Where the call is inconclusive, the potency comes from a doubtful curve fit. Active and inactive are the calls of the source. Calls follow the shape of the dose curve; as a rule, active = well fitted inhibition curve with a large enough effect in the repeat runs; inconclusive = weak or mixed curves; inactive = no such curve, though single readings can be large or run the other way.
target: Cytochrome P450 1A2 (Homo sapiens) (UniProt P05177); assay: Cytochrome P450 Family 1 Subfamily A Member 2 (CYP1A2) small molecule antagonists: luciferase reporter qHTS assay (AID 1671199); details: P450-Glo CYP1A2 enzyme, luciferin luminescence, 1 h; series mostly up to 115 µM; also: nearly all actives have a fitted effect of over 50% in size
How it was run: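 Quantitative high-throughput format using the P450-Glo CYP1A2 system. Reaction initiated by NADPH regeneration solution, 1 h at room temperature, then stopped with detection reagent; luminescence measured 20 min later.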
Potency is read from the fitted curve at half-maximal effect; tags tell the direction and shape of the fitted curve.

UniProt P05177, sequence (P05177 whole entry, looked up): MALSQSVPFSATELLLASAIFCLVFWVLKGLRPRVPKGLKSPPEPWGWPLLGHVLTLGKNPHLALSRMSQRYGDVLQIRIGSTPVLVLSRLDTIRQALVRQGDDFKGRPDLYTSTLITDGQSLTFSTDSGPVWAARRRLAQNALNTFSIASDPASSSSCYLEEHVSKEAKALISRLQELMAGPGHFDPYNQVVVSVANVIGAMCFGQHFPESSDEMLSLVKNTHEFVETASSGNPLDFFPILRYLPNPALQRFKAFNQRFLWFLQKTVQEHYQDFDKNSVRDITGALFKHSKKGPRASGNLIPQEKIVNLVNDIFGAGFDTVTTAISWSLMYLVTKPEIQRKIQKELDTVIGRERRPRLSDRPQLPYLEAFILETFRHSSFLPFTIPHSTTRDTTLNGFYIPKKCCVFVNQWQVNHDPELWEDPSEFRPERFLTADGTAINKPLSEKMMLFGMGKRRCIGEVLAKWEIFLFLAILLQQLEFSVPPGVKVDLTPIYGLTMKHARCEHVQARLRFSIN

Compound | Potency
O=C(C1CCCCC1)N1CC(=O)N2CCCc3ccccc3C2C1 (stereo unspecified) | inactive
OC[C@@H](O)[C@@H](O)CO | inactive
COCCc1ccc(OCC2CO2)cc1 (stereo unspecified) | inactive
c1csc(SSc2cccs2)c1 | active: 31.7 µM
OCCc1ccccc1 | inconclusive: 27.5 µM [inhibitor, partial curve]
C=CC(C)(CCC=C(C)C)OC(=O)CC (stereo unspecified) | inconclusive: 35.6 µM [inhibitor, partial curve]
OC12N=C(c3ccccc3)SC1Cc1cc(Cl)ccc12 (stereo unspecified) | active: 1.78 µM
CC1C(C)(C)C2=C(C(=O)CCC2)C1(C)C (stereo unspecified) | inconclusive: 71 µM [inhibitor, partial curve]
OC1(c2ccc(Cl)cc2)CCNCC1 | inconclusive: 5.49 µM [inhibitor, single point]
Cc1ccc(C(=O)O)o1 | inconclusive: 44.8 µM [inhibitor, partial curve]
O=S(=O)(O)c1ccc(O)c2ncccc12 | inactive
CCCCOC(=O)CCCCCCCC(=O)OCCCC | inconclusive: 39.9 µM [inhibitor, partial curve, poor fit]
CN1Cc2cc(C(=O)N3CCC(C4CCNCC4)CC3)ccc2N[C@@H](CC(=O)O)C1=O | inactive
COc1cc(S(=O)(=O)O)c(C)cc1N=Nc1c(O)ccc2cc(S(=O)(=O)O)ccc12 | active: 35.6 µM
CCOC(=O)CCCCCCCCC(=O)OCC | active: 44.8 µM
CN(C)C(=O)Nc1ccccc1 | inconclusive: 39.9 µM [inhibitor, partial curve]

From PubChem BioAssay (Tox21)
